# Screen size: about 340,000 compounds; about 12,000 (3.5%) were called active. This list was built around the results that the source calls inconclusive (neither active nor inactive); the mix of calls is not that of the screen. The call rests on the fitted dose curve; in most records, active means well fitted inhibition curve with a large enough effect; inconclusive means small, poorly fitted or top-dose-only effect, or another doubt; inactive means no such curve, though single readings can be large or run the other way. Potencies of inconclusive entries are left out as doubtful fits.
# Experiment: qHTS Assay for Inhibitors of Hepatitis C Virus (HCV)
# Conditions: Huh7.5.1 HCVcc-Cre (HCVcc is cell-culture hepatitis C virus) infection, luciferase reporter, 44 h; series mostly up to 41.8 µM
# How it was run: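 Antiviral activity was scored by luciferase reporter output from cells infected with HCVcc-Cre (~0.5 moi) in presence of compound, 44 h infection period, cells seeded 1,000/well 4 h prior.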
# Potency means the concentration at half of the fitted maximal effect; tags describe the fitted curve by direction and shape.
row,Compound,Potency
1,CC(C)(C)N=C1NN=C(c2ccc(S(=O)(=O)N3CCCCC3)cc2)CS1,"inconclusive [inhibitor, single point]"
2,CCCC(=O)Nc1nc2ccc(NC(=O)c3ccccc3F)cc2s1,inactive
3,COc1ccc(NS(=O)(=O)c2cc(NC(=O)c3cc(F)c(F)c(F)c3F)ccc2N2CCCC2)cc1,"inconclusive [inhibitor, single point]"
4,CCOC(=O)C1CCN(S(=O)(=O)c2cccc(-c3csc(C)n3)c2)CC1,"inconclusive [inhibitor, single point]"
5,COCCCNC(=O)c1ccc2c(c1)ncn2-c1ccccc1OC,"inconclusive [inhibitor, single point]"
6,C[C@H]1C=CC(=O)O[C@H]1c1ccccc1,inactive
7,COCCOC1CCN(Cc2cn(Cc3ccccc3)nc2-c2cc3ccccc3o2)CC1,inactive
8,Cc1cc(C)n2nc(C)c(-c3ccc(Cl)cc3)c2n1,active: 11.2 µM
9,Cc1ccc2c(C(=O)CN3CCCCC3)c(C)[nH]c2c1,"inconclusive [inhibitor, single point]"
10,FC(F)(F)c1cccc(N2CCc3cn[nH]c32)c1,"inconclusive [inhibitor, single point]"
11,Cc1ccc2c(c1)c1ccc3c(c1n2C)C(=O)C=CC3=O,active: 11.2 µM
12,CC(C)(Oc1ccc(Cl)cc1)C(=O)N(Cc1ccccc1)c1ccccn1,inactive
13,CNc1nc(C)c(C#N)c(-c2ccccc2)c1C(C)=O,"inconclusive [inhibitor, partial curve]"
14,COc1cccc(-c2nc(-c3ccccc3)[nH]c(=O)c2C#N)c1,"inconclusive [inhibitor, partial curve]"
15,O=S(=O)(c1ccc2oc(=S)[nH]c2c1)N1CCCCC1,inactive
16,CCN(CC)CC(=O)Nc1cccc(S(=O)(=O)N2CCCC2)c1,"inconclusive [inhibitor, single point]"
17,CCOc1ccc(-c2nnc(SCc3nnc(-c4ccccc4)o3)n2-c2ccccc2F)cc1,"inconclusive [inhibitor, partial curve]"
18,COc1ccc(Cl)cc1NC(=O)CN(C)CC(=O)Nc1ccccc1-c1ccccc1,"inconclusive [inhibitor, partial curve]"
19,COc1ccccc1NS(=O)(=O)c1cc2c3c(c1)CC(=O)N3CCC2,"inconclusive [inhibitor, single point]"
20,O=C(N/N=C/c1cccs1)c1cc(-c2ccc3ccccc3c2)n[nH]1,"inconclusive [inhibitor, single point]"
21,CCOC(=O)c1c(C)nc2sc(C(=O)Nc3ccc(OC)cc3)c(N)c2c1-c1ccc(OC)cc1,active: 3.55 µM
22,CC1CCc2sc3ncnc(N4CCOCC4)c3c2C1 (centres undefined),active: 10 µM
23,CNc1ccc(N=Nc2cccc3ncccc23)cc1,"inconclusive [inhibitor, partial curve]"
24,Cc1ccc(CNC(=O)c2ccc(-n3cccc3)cc2)cc1,inactive
25,O=C(NC(Cc1ccccc1)C(=O)N1CCC2(CC1)OCCO2)C1CCCCC1 (centres undefined),inactive

row,Compound,Potency
1,CCCCn1nc(CC(=O)O)c2ccccc2c1=O,"inconclusive [inhibitor, single point]"
2,N#Cc1ccccc1OCC(=O)Nc1ccc(N2CCOCC2)cc1N1CCOCC1,"inconclusive [inhibitor, single point]"
3,NNC(=O)c1ccc(S(=O)(=O)N2CCc3ccccc32)cc1,inactive
4,COc1ccccc1NS(=O)(=O)c1ccc2oc(SC(C)C(=O)N3CCNC3=O)nc2c1 (centres undefined),"inconclusive [inhibitor, single point]"
5,Cc1cccc(CS(=O)(=O)Cc2ccc(C(=O)NCc3cccs3)o2)c1,inactive
6,COc1ccc(OC)c(S(=O)(=O)CC(=O)c2cc3ccc(OC)cc3oc2=O)c1,inactive
7,CCn1ccnc1CN(C)Cc1cn[nH]c1-c1ccc(F)cc1F,inactive
8,Clc1ccc(OCc2nnc(SCc3nc4ccccc4[nH]3)n2Cc2ccco2)cc1,active: 10 µM
9,CC(C)(C)c1ccc(C(=O)Nc2ccc(F)cc2)s1,"inconclusive [inhibitor, partial curve]"
10,CC(C)C[C@H]1C(=O)N2CCCC2[C@]2(O)O[C@](NC(=O)[C@@H]3C=C4c5cccc6[nH]cc(c56)CC4N(C)C3)(C(C)C)C(=O)N12 (some centres undefined),"inconclusive [inhibitor, single point]"
11,NC(=O)c1cc(-c2ccccc2)sc1NC(=O)CN1CCCCC1,active: 12.6 µM
12,C=CCn1c(Cc2ccccc2)nc2c(cnn2-c2ccccc2)c1=O,"inconclusive [inhibitor, full curve]"
13,COc1cc(-c2nnc(SCc3c(F)cccc3Cl)o2)cc(OC)c1OC,active: 35.5 µM
14,O=c1c2c(-c3cccs3)csc2ncn1-c1ccccc1,"inconclusive [inhibitor, single point]"
15,CCCn1c(SCC(=O)Nc2ccc(S(=O)(=O)N(C)C)cc2)n[nH]c1=O,inactive
16,O=C(Cc1ccc(Br)cc1)Nc1ncc([N+](=O)[O-])s1,inactive
17,CN(C(=O)CN1C(=O)/C(=C/c2ccccc2F)SC1=S)C1CCS(=O)(=O)C1 (centres undefined),inactive
18,CC(Oc1ccc(Cl)cc1Cl)C(=O)Nc1ncccn1 (centres undefined),inactive
19,CC(C)(C)c1ccc(NC(=O)CN2C(=O)NC(C)(C3CC3)C2=O)cc1 (centres undefined),"inconclusive [inhibitor, single point]"
20,CCOC(=O)c1c(C)nc2c(c1-c1ccccc1)C(=O)c1ccccc1-2,"inconclusive [inhibitor, single point]"
21,COc1ccc2cc(Br)ccc2c1CC(=O)N(C)C,inactive
22,COc1cc2c(cc1NC(=O)c1cccc(S(=O)(=O)N(C)C)c1)oc1ccccc12,active: 1.41 µM
23,CCCOc1ccc(C(=O)c2nc3c(n2O)CCCCC3)cc1,inactive
24,CCN1CCN(C(=O)c2cc3cc4cc(OC)ccc4nc3s2)CC1,"inconclusive [inhibitor, single point]"

# From PubChem BioAssay AID651820 (National Center for Advancing Translational Sciences (NCATS), 2012)
